# In PMC4641898:
# The chains behind the UniProt entries cited, without tags or fusion partners. Where a name states a change or a piece, a line headed by the entry shows the natural chain unless it says otherwise.
# UniProt P22953: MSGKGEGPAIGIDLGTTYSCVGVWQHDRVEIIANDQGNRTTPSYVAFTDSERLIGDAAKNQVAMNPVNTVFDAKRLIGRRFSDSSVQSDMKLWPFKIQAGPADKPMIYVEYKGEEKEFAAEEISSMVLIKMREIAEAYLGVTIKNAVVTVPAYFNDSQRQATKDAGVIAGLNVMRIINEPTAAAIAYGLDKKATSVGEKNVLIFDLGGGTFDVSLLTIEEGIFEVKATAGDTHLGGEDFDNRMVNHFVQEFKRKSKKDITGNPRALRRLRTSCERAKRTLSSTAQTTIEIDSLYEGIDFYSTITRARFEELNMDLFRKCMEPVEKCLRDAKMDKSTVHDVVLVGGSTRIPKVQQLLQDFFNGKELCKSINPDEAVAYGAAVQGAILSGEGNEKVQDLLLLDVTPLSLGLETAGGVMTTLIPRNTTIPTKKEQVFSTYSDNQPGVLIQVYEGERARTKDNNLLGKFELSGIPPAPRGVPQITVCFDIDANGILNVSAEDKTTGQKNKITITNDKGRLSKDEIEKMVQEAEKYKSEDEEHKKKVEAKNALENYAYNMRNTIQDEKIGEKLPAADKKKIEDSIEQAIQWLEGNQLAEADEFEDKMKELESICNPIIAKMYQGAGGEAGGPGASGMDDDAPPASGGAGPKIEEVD
# These are yes or no findings as the source states them, for the method shown. For some assays here: Binding seen in cells or lysates may run through a third protein. Some binding calls cover weakened binding; strength is not graded here. Tags and fused reporters may be left off the sequences shown.
# Tests used:
# [1] = target: T1, RRM protein (At5g10350), full length, yeast two-hybrid fusion (Arabidopsis thaliana) (UniProt Q9LX90); test: two-hybrid; GAL4-based Matchmaker system, pGADT7-DEST and pGBKT7-DEST fusions co-transformed into S. cerevisiae PJ69-4a (His3 and Ade2 reporters); histidine and stringent adenine selection
# T1 sequence: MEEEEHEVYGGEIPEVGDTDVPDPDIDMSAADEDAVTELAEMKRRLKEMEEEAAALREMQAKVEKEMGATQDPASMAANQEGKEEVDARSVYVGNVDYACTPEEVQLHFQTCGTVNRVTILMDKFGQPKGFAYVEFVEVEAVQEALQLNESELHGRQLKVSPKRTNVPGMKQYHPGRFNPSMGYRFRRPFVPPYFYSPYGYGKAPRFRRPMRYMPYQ
# [2] = target: T2, RRM protein (At5g10350), full length, split-YFP fusion in tobacco BY-2 protoplasts (Arabidopsis thaliana) (UniProt Q9LX90); test: split reporter; BiFC screen: nYFP-RRM against a cYFP-tagged Arabidopsis cDNA library in tobacco BY-2 protoplasts; the identified cYFP clones co-transfected with nYFP-RRM and mRFP-VirD2NLS
# T2 sequence: T1 sequence
binding [1],binding [2],Substance
no binding,,"Heat Shock Cognate protein 70-1 (HSP70-1), full length, yeast two-hybrid fusion (from UniProt P22953 1-651)"
,binds,"cYFP-tagged Heat Shock Cognate protein 70-1 fragment HSP70-1(1-211), cDNA library clone (from UniProt P22953 1-211) (domain or fragment)"
